The RNAGym collection of RNA variant scans (doi:10.1073/pnas.2313332121)
Variants at the floor of the assay are shown more often than the library holds them.

B1: TPR 5TU (parent)
chain: GGAUCUUCUCGAUCUAACAAAAAAGACAAAUCUGCCACAAAGCUUGAGAGCAUCUUCGGAUGCAGAGGCGGCAGCCUUCGGUGGCGCGAUAGCGCCAACGUUCUCAACUAUGACACGCAAAACGCGUGCUCCGUUGAAUGGAGUUUAUCAUG

Variants of: B1
Assay: polymerase ribozyme fitness, log enrichment relative to wild type (log ratio); higher = more active; in vitro selection for triplet polymerase activity
In short: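 Mutant libraries of both subunits of a heterodimeric triplet polymerase ribozyme were PCR-built, transcribed, and selected once in triplicate, with frozen incubation at −7 °C and capture of gel-excised extended constructs on streptavidin beads before RT-PCR. Illumina sequencing of input and output libraries was filtered to genotypes with ≥10 input reads and ≥1 read per output. Fitness is the logarithm of genotype enrichment over wild-type enrichment, using inverse-variance-weighted replicate averages. The logarithm is base 2.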

Variant	polymerase ribozyme fitness (log ratio)
A3G C51A	-1.26
A3U A40G C54U C95A C149G	≤ -4.2
A3C C18U C85A A106C G140C	≤ -4.2
A3U U7G A66C G68A A97U A107C	≤ -4.2
A3U A23G A66G C93U C103U A119G G141C	≤ -4.2
A3G C38U A64C G74A G80U	≤ -4.2
A3U C36A U53C U78C C95G A115U A137C	≤ -4.2
U4A A22U C93A U102A A137C	≤ -4.2
U4A A47C G84U C95G C149A	≤ -4.2
A3U U4A C14A A22U A49U A52G U61A A113C	≤ -4.2
U4A A22C G48U C75G G84A	≤ -4.2
A3U A22G A39C G83A C114U A115C G140C	≤ -4.2
A3G A22C A23U C32G A64C U82A C96G U104A	≤ -4.2
U4C A16G A29U U56A A73G A91G U111G G133A	≤ -4.2
U4A A24G C87U A89G G141U U145G	≤ -4.2
A3U C10A A52C C75U C93U A150U	≤ -4.2
A3G U13A G42C C75U A138U	≤ -4.2
A3G C5A A19C A22C C57G G83C G92A C108G	≤ -4.2
A3G C10U C36U C85A G126A	≤ -4.2
U4A A39C A41U G94A U102A C125G A137C	≤ -4.2
A3G C36A U61G A120G	≤ -4.2
A3G A24U U55A C85A	-2.17
A3U G59A G74U A113U A121U	≤ -4.2
A3U C35A U56C C93U	≤ -4.2

Variant	polymerase ribozyme fitness (log ratio)
U4A G42C U61G C96G	≤ -4.2
A3U U9C G42A G86A C105G A138U	≤ -4.2
A3G C69A A89G C116A A138G	≤ -4.2
A3U A16G U31C C69G U82G G84C A121C A142C G143A	≤ -4.2
A3U A22U C35A A73G C125A A147G	≤ -4.2
A3U A49C	≤ -4.2
A3G U44A C87A U90C C93G C105G A122G	≤ -4.2
A3U A20G A28U C54A U55G C72U A106U C116U	≤ -4.2
A3G U9G C99A	≤ -4.2
A3C U4G A16G U33G C43U G92U A106G	≤ -4.2
U4C A29C G71A C76A G83U U104A A137U	≤ -4.2
A3U C5G A21U C85U A122G G140U U144G	≤ -4.2
A3U C14U A37C C63U G136U A147C	≤ -4.2
A3G C14G C93G G143C	≤ -4.2
A3G C63G G83A G86U A120G	≤ -4.2
A3G C27A A29G A41U G50A G59A G94U C116U C125A	≤ -4.2
A3G C10U C32U A37G C76U A91C G140U	≤ -4.2
A3G C8A A17G C32G A41C A120C C125G A142C	≤ -4.2
A3G A16U C18U U45G U55A G83U C95A C96G U104C U151A	≤ -4.2
A3U C8A A39U A91G U111A A115U G117U	≤ -4.2
A3U A17G A28U C63A G84A A121C A142U U145A A150C	≤ -4.2
A3C U78C G83U G86A A121C	≤ -4.2
U4C A22C G25C A28U G42C U44C C69A A98G U145G	≤ -4.2
U4A A30C U53A U56A C95U G100U C125A	≤ -4.2

Variant	polymerase ribozyme fitness (log ratio)
A3G A24C U53A U61A C85G	≤ -4.2
A3U A20U C32U A49C G59C C69A A91C U139A A147C	≤ -4.2
A3C C35G A52U U56A G83U C96U	≤ -4.2
A3U A19C G50A C93A C114G G124U U134A	≤ -4.2
U4A U13A A30U C85U A106C A107G	≤ -4.2
A3U A12C A24U A30U U31G C35G A47U G50U G74A G86A G141A	≤ -4.2
A3U C8G U31C U109G	≤ -4.2
U4A A23U A24U G50A C96U U104G U145C	≤ -4.2
U4A C76G A91U A115U	≤ -4.2
A3U A19G A20U U55A G58U U78A U90A U101G	≤ -4.2
A3G U9G A20G G81A G83C C125A U144C U145C	≤ -4.2
A3G A21G A52G G68A G92U U101G C108G U148C	≤ -4.2
A3U C105G	-1.75
A3G C51U G86U C108G C125A	≤ -4.2
A3U U15C A17C A26C G74C A106G	≤ -4.2
A3G A16C A26C U45A G59C G86C U130G U145G	≤ -4.2
A3U A52U G84A A107G C123U A142C	≤ -4.2
A3U C14A U31C A66U C79G G80U A113U	≤ -4.2
A3G U31G A40C G50A C54G G58A G71A	≤ -4.2
U4C A19U A40U A60U A97U G143U	≤ -4.2
U4A C8G U13G A24C C96U	≤ -4.2
A3U A26C G81A C87U G88C G124C G136U G140C	≤ -4.2
U4A A20C A28C A29G C87A G141U	-4.08
U4A A52C U53A C85U A107U A119C C125U	≤ -4.2

Variant	polymerase ribozyme fitness (log ratio)
U4A G48C C63U C79G C85U A98U C105U U111G	≤ -4.2
A3G C8G A22U A26G G46C C96U	≤ -4.2
U4A G46U A49C G83C A91U G94U G117U	≤ -4.2
A3C U33G A47U A49G C75A C76U A91U C93G A98U C114A G136C	≤ -4.2
A3C U13A U55A A89C C108G C118U	≤ -4.2
U4A A21C A37G G59U C93G C96U	≤ -4.2
U4A U9A U15G C36G U82A G94C	≤ -4.2
A3U A30G G42A C75A C95A	≤ -4.2
A3U A21G G46A C85A C87U U127A U130G	≤ -4.2
A3U A20G U45G C85G	≤ -4.2
U4A A22G G58C A64U G68C A73G C85A C87U G126C	≤ -4.2
A3U G34A G71U A73G C79G C85G C87A G88U G92U A115G	≤ -4.2
A3U A24U A66U C93G A107C	≤ -4.2
A3G G59C C96A U139C A142G	≤ -4.2
A3G C35G G83U C87U	≤ -4.2
A3G A20U A23U A26U G48C C63U C96U C114U	≤ -4.2
A3U G68C C72U U109G A120G	≤ -4.2
U4A C54A C95A A138C	≤ -4.2
A3G C5U C8G C93A A113U	≤ -4.2
A3U G92A A113G G133U A142U U146G	≤ -4.2
A3G A30C C95U C105U	≤ -4.2
A3G C95G C96G G100A	≤ -4.2
A3U G58C G59C C96U C131A	-3.63
A3U A49C G84C U90G C103G A115U	≤ -4.2

Variant	polymerase ribozyme fitness (log ratio)
A3U U56A A73U C99U A107G A113G G117A C131U G133A U135G	≤ -4.2
A3G A19G C27G G48C	≤ -4.2
U4A U9A A20C C51U A52G U55C C93U A107G C125A G141U	≤ -4.2
A3U U55A G80C C87A U134G	≤ -4.2
A3U A37C A52C A73G A89G C95A U111A C129A U134G	≤ -4.2
A3U C36U U55G G59A C93U A106U U151A	≤ -4.2
U4A C87A	≤ -4.2
A3G U15G G25C C36A C87U C114U A115C U146A	≤ -4.2
A3G U77C C93G G143C	≤ -4.2
A3G A17U A28G C35A G88A A121G U148G	≤ -4.2
A3U A37C G80A C87G A98U A107C	≤ -4.2
A3U A39U U53G C75A G84U C85G C118U	≤ -4.2
A3U A52U C57G G68A G88A A107G A115G A119G C125A	≤ -4.2
A3C G68U C93A	≤ -4.2
A3G A17G U55C G92A U148G	≤ -4.2
A3U G67U A107U	≤ -4.2
A3G G88U	≤ -4.2
U4C A39C C75G U77A	≤ -4.2
A3G A28G A29C G94C G117A C118G	≤ -4.2
A3U A37U U90G A91G A119U	≤ -4.2
U4A G62U A64C C75A G94A A97G A138G G141U	≤ -4.2
A3G C8G A73G C85U A91C G94U A138C	≤ -4.2
A3C U77A G80C U90G C105U U111C	≤ -4.2
A3U C18U A19G A89C C99A C108G A115G	≤ -4.2

Variant	polymerase ribozyme fitness (log ratio)
A3U A40U U53C G74U U101G	≤ -4.2
U4A C43U C54A U78C U109C	≤ -4.2
U4A C93A	-1.38
U4C A20C G25U A47G U55A C79G C93U	≤ -4.2
A3G A73U G83U A137U	≤ -4.2
A3C C93A C95G G140A	≤ -4.2
A3G C14G A28C A30G C35A G81U G94A U134A	≤ -4.2
A3U A91C C93A U139C U151G	≤ -4.2
U4A A91U A115G	≤ -4.2
U4A G58U C87U U90G U127A U148G	≤ -4.2
A3U U13G U56A U82A C87A	≤ -4.2
A3C U9C C35A C76A G80C G86U G124U	≤ -4.2
A3G A16C A52G G68A A73U C85A U148C G152U	≤ -4.2
A3G A30G A47G G71C C87G U135G	≤ -4.2
A3U A49G G50A C96U G141A	-3.63
U4A C27U G83C G117A A122G U146A	-3.14
A3U C116A U144G U151G	≤ -4.2
A3U U7A C14A A41C U45G C69A C87A G94A A121C	≤ -4.2
U4C A19U G50C C76U U144G	≤ -4.2
A3U A29U G74A C85A G117U A119C G141U	≤ -4.2
U4A C8U A16U A40C U53A C57U C87A A97U U145G	≤ -4.2
A3U C57U C87U A113C A119G	-3.73
A3U A41U	-1.29
A3G A49U C85G G124A G140C U148C	≤ -4.2

Variant	polymerase ribozyme fitness (log ratio)
A3U U15G U31C U33C G50U C57A G84U C99G C103A A147C U148C	≤ -4.2
A3G U44G A113C	≤ -4.2
U4A C8A A17G C35U A49U C69U C75A G94A	≤ -4.2
U4C A26G U61A A91G C99A G124C C125A	≤ -4.2
A3U C5A C54U C96U C114U C132A A142C	≤ -4.2
A3U U55A G84A	-0.911
U4C A20U A29U G46C C54U C85U C116U	≤ -4.2
A3U A20C A40C G46U A52G U56A C93U A113G	≤ -4.2
U4C A49U G94A A106G C123U	-1.94
A3G A30C G34A G48U G62U C87A A120U U127A U144A	≤ -4.2
U4A C79U G83A A107G A110G U144G	≤ -4.2
A3C G88A U151C	≤ -4.2
A3C U4A A30U G50C G94A A120G U144G	≤ -4.2
A3G A12G A16G A22G A29C U55G U61G C75U G92U U130G U151A	≤ -4.2
A3G G42C U44G U56G G83A U145C C149G	≤ -4.2
A3U A21U C35U A52G G80C G128A	≤ -4.2
A3G A17U A47U U55G	-0.403
U4A C54G U55A C96A C123U U144C U148G	≤ -4.2
A3U G11A C14U G46C C76U C85A	≤ -4.2
U4A A19C A89U C96U A138G U146G	≤ -4.2
A3G A29U A30C G42A G141C	≤ -4.2
U4A A26U A39U C54G G81C G84U A97U C118U U148G	≤ -4.2
U4C A40C U45G G46A G84U C96G C118U U144A	≤ -4.2
